According to the supplement of paper PMC11417369:
± gives the standard deviation of the averaged measurements. The list shows a part of the results.

Tested on: PfAP2-LT AP2 domain (GST-tagged)
Assay: gcPBM binding intensity (ln(normalized median fluorescence intensity)); higher = stronger DNA binding
Outline: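 GST-tagged P. falciparum DNA-binding domains, expressed in E. coli (about 25 μg on average), were applied for 1 h to an Agilent 4 × 180k array of primer-extended double-stranded 36-bp intergenic genomic probes plus negative controls. The binding buffer was 1× PBS with 1% milk, 0.2 mg/ml BSA, 0.5% salmon testes DNA and 0.03% Triton X-100. Bound protein was detected with Alexa488 anti-GST antibody and scanned at 488 nm. Binding intensity is the highest Masliner-normalised natural-log median intensity across replicate spots of either probe orientation.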

Row | Sequence | gcPBM binding intensity (ln)
1 | GATAAAATCACTGGTGCATGTAGATATATAATATTA [TGCATGCA_site589] | 8.8 ± 0.43
2 | AATTAACAAAAACACACACACACACCGACAAAAAAA [CACACA_site4444] | 10.1 ± 0.23
3 | ATATGCTTATTGTAAAGTACATTATTATTTTTCCTA [XGTACX_site5479] | 8.66 ± 0.51
4 | CATATATACGCATACACACACACACCCACACCCACA [CACACA_site1725] | 10.16 ± 0.05
5 | TACAAATATATATGCACACACATATACATACAGATA [CACACA_site5238] | 9.45 ± 0.42
6 | TGATGAAAATCTACATGAATGTTTTTATATCTATAT [GTGCAC_negctrl_site139] | 8.76 ± 0.44
7 | ATGAATAAATAAGACACACACGAAAATAAGTAAAAA [CACACA_site4216] | 9.57 ± 0.45
8 | TATTTTGATTATTCAGTGTATAAATATATATATATA [CACACA_negctrl_site545] | 8.59 ± 0.26
9 | CCAATGTTTTCTTGTGTACACATCATTAAAGAAAAA [CACACA_site5300] | 8.58 ± 0.41
10 | ATTCTATATGAAAAATGTACAAATAAAAATTCTAAG [XGTACX_site8900] | 8.59 ± 0.45
11 | CATGAAAATATTATGTGTACTTAATGCACATTCAAA [XGTACX_site1952] | 8.57 ± 0.42
12 | CACGCATACAGACACACACACACACCGATATATATA [CACACA_site8113] | 10.1 ± 0.37
13 | AATATATTGTTTCCTGATATTAAATTCAATTTAATG [GTGCAC_negctrl_site22] | 8.48 ± 0.4
14 | TAAAGAGAGACATCAACACACATACGTATGTATAGA [CACACA_site4896] | 9.02 ± 0.43
15 | ATTTACCTATATATTTGTACTTACATAATGCTACCT [XGTACX_site2693] | 9.01 ± 0.54
16 | TAAAAAAAAATATATAAACACACATATTTATATACA [CACACA_site8469] | 8.65 ± 0.47
17 | TATATATATTTTGGCTGTACATCAGCGTATATTTTT [XGTACX_site3233] | 8.77 ± 0.49
18 | AATAAATATATACATTGTACATATATAATATATATA [XGTACX_site1458] | 8.69 ± 0.47
19 | TAAATTATAATATGCACACAAAATGTTATATTAAAA [CACACA_site376] | 8.76 ± 0.48
20 | CCTATCCATGCATATACACACATATCTATTTATATA [CACACA_site6886] | 9.15 ± 0.39
21 | AAAAAAAAACAAAAAAGTACAAAATAAAAATACGTT [XGTACX_site4566] | 8.9 ± 0.55
22 | CTCTTCATATATAATTGTACACACAAAAACGACATT [XGTACX_site4287] | 9.09 ± 0.39

Row | Sequence | gcPBM binding intensity (ln)
23 | TTAATTTTTTTTTAAACACACATTTTTTTATTTAAG [CACACA_site2738] | 8.42 ± 0.54
24 | TGAATAAAATATTATACACACATATGTATATAACAT [CACACA_site974] | 8.98 ± 0.35
25 | TATTAATTTTTTTTTTTTTTTTTTTTTTTTTTTTTT [CACACA_negctrl_site1329] | 8.63 ± 0.18
26 | GTTATAAATAATAAATAAATAATCAAATGAAGAATG [CACACA_negctrl_site653] | 8.78 ± 0.5
27 | GAATATTAAATATTATCACACACATAATTATTTCCA [CACACA_site8730] | 9.07 ± 0.35
28 | AAATAAAAAAAAGCCTGTACATGTTCATAAATTTTT [XGTACX_site7925] | 8.68 ± 0.45
29 | ATATATATTTATAATCGTACGTACCTAACAATACAA [XGTACX_site4510] | 8.88 ± 0.35
30 | TCCTTATTTCATATTTTTAAATAATACAAAAAAAAA [CACACA_negctrl_site773] | 7.95 ± 0.42
31 | TTCTATTTATATGTGGGTACTAATTTTTTTTCTTTT [XGTACX_site7104] | 8.82 ± 0.47
32 | CTTAAATTAATTTGGGTGCATATATTTGTACACATT [GTGCAC_site9948] | 8.81 ± 0.46
33 | ATAAATATACCAATCGGTACACATTTATACAAACAA [XGTACX_site7484] | 8.92 ± 0.58
34 | AGAATAAATATGTGGTGTTATAGTATTAATGTTAAT [TGCATGCA_negctrl_site62] | 8.76 ± 0.39
35 | AATAAATACACATACACACACGACGCTAGTATATGT [CACACA_site6627] | 9.42 ± 0.23
36 | GCTATAAATATAATCACACATAAATATATAATATAT [CACACA_site5144] | 8.73 ± 0.37
37 | AGGAGGATAGTTCACAGTACCCAGGAAATCTGCGGA [XGTACX_site4928] | 8.72 ± 0.54
38 | TATGCAATAAAATATACACACAATATACTTATATAT [CACACA_site7691] | 8.99 ± 0.38
39 | TTTATTTTCCAAAGGGTGCACATAGTTAAAACGATA [GTGCAC_site9855] | 8.59 ± 0.47
40 | TGATTAATTTTTAAATGTACTTAAAAATATACTTAT [XGTACX_site2872] | 8.21 ± 0.49
41 | ATCTATATTCATAATACACACATTCTGTAGCATTAT [CACACA_site7058] | 9.13 ± 0.34
42 | TATATCATATAAAACCGTACATACATACTTAATTGT [XGTACX_site6822] | 8.74 ± 0.46
43 | AACAGGTCATAATTTACACACTATATATTTTATTAT [CACACA_site670] | 9.06 ± 0.35
44 | TAACATATGGGACACACATGCAACTGTTATATGTCC [TGCATGCA_site959] | 9.12 ± 0.47
